Experimental data as given in PubChem BioAssay (NCI).
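Method: 48-hour compound exposure of cells in 96-well plates, five concentrations, linear interpolation of endpoints. GI50: concentration for 50% inhibition of growth. TGI is the concentration that stops growth completely.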

Test system: NCI-H322M lung
Experiment: NCI anticancer screen, dose series, 48 h

SMILES: O=C1NC(=S)/C(=C/c2cn(-c3ccccc3)nc2-c2ccccc2)S1
- GI50: 12.8 µM
- TGI: > 100 µM

SMILES: O=C(c1ccc(Cl)cc1)C1[C@H](c2ccccc2Cl)[C@@H](c2ccccc2)NC12C(=O)Nc1ccc(Br)cc12 (stereo partly specified)
- GI50: 19.6 µM
- TGI: 53.1 µM

SMILES: COc1cccc(/C=C/C(=O)c2ccc(OC)c(S(N)(=O)=O)c2)c1
- GI50: 3.08 µM
- TGI: 12.4 µM
